Values marked as one replicate rest on one cluster of the flow cell; about a third of the high ones do not repeat.
System: ATP
Experiment: switch fluorescence ratio, 500 uM ATP over buffer (Cy3 cluster intensity, sum of 5 cycles each) (fold (ratio)); higher = stronger signal-on switching upon ATP binding; sequences stand for … in TCGTCGGCAGCGTCAGATGTGTATAAGAGACAGTTTTTTTTTTTTTTTTTTTTTTTTT…TC
Conditions: aptamer strand: ATP DNA aptamer (quencher-CACCTGGGGGAGTATTGCGGAGGAAGG + anchor), 100 nM annealed; ATP concentration: 500 uM; one replicate
How it was run: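 Values give the fluorescence ratio for each switch-domain sequence, averaged from per-cluster ratios of summed target-cycle to summed buffer-cycle Cy3 intensity. The Cy3-labelled switching-strand clusters sat on a modified Illumina MiSeq flow-cell, were annealed to 100 nM quencher-labelled ATP aptamer, and were imaged in selection buffer, then after 15 min with 500 uM ATP at 22 °C. Five cycles ran with NaOH stripping and re-annealing between them, and clusters outside 100-1000 RFU were excluded.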
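Further: ATP exposure 15 min at 22 °C before imaging.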

Sequence	switch fluorescence ratio
GAAGTATTGC	1.02
GTCGGAACGC	1.07
CCAAACATT	1.02
CCTCAGATTC	1.78
GAGTGTTTT	1.06
CTAAAATACA	0.98
CTGCTCTTTT	0.981
ATTTTTGTAA	1.03
GCAGGGGTGT	1.07
AGAAAGTGTT	0.98
TAGTAAGGCC	1
TATTGTACGA	0.957
TGGACCATAC	1.32
CGCATTAGTA	1.09
TAAAAGTGC	1.23
TACTTACCCC	1.28
CGTATAGCAG	0.973
CTGCAGTCTG	1.04
TTATAAGTTC	0.969
AACGGGGTAC	1.15
CAGAGGGATA	3.13
TGAGGCTAA	1.06
GCGGGGACGA	1.03

Sequence	switch fluorescence ratio
TGAGTTGGGC	1.03
GAACTCCTGG	1.02
GCGATACTTG	2.13
TACAGCCGTT	0.982
CACTAATTCT	1.01
TTTTATGCTC	1.01
TTGGACACGA	0.985
GTCACTGGCA	1.06
TTTAGGACAA	0.946
ATGCCACTAG	1.02
TTCTATATAC	1.16
ACTATTTAAG	0.954
GTAGCCGAAA	1.03
TGTTCCTTAG	0.979
ACACTAAGC	1.02
TGCCAACATC	1.01
GGTTATCTGT	0.993
AGGCACGCTA	1.1
ACGAAAAATT	1.03
CGATTGGCTA	0.981
GTCCCCGAGA	1.02
ATAGTTGCAA	0.999
TCCAATGTTA	1.03

Sequence	switch fluorescence ratio
AGGTTACTTT	1.01
AGACAGTCAT	0.976
AAATTATAAT	0.995
CTTACAGC	1.06
CGTTTCGACC	1.07
ACACCGGGTT	1.21
ATTTATTTTG	1.08
TACCATAAC	1.11
ATCACGAAGG	1.04
TTGCTCGCAG	1.09
TAGAAAAGAT	1.05
AAGTAATTA	1.07
CACTGCGGTT	1.05
CCTAAGCAAG	2.94
TAATCGACGA	1.03
CTTAGGTAA	1.01
TCGTTTGTAA	1.06
AGCACTCCTG	1.05
CGGACACGGC	0.945
TCTACCACAT	1.04
GTCGTTGAAA	0.997
ATGAATCGCA	1.07
GCCCGCTTTC	1.95

Sequence	switch fluorescence ratio
TGCCTCAGGA	1.08
CTCCGATGAA	2.16
AGGAAATGC	1.22
AAAGCGGCTT	0.973
GAAGGACTAT	0.992
AAAGAGGCGA	0.955
AGTCGCACAC	1.48
AAAAAAGCGC	0.999
TCGGTACTAA	0.973
TGCGGAGAGT	1.04
ATGTTTGGCT	1.01
ATAAACTTCT	1.09
ACTGTCGTTT	0.996
CTGTCATCTA	1.01
TTTAACCTAG	0.981
GACTATCAAG	1.02
AGACTCTAGA	1.03
CCGAAGTCTT	1.8
GAGTACGGTT	0.972
TAACAGACAG	1.03
GGATAAATGG	0.977
GGTTAAGTCG	0.987
ACGTCGTCAA	1.29

Sequence	switch fluorescence ratio
GTAAATGT	0.968
AAACCATTAA	1.04
TATCTTAGCC	1.05
CTTTGACTTT	1.02
AGTTGGCAGA	1
TGGACCCAAG	1.03
TGTTTGGT	0.992
TAGGACCAAA	1.14
CATGTGGCAC	0.964
CAACCACTTT	1.1
AAGACT	0.984
CCAATCGGGA	1.02
TTTTCAACGA	1.02
CGTCGACGAA	0.946
CTGGTAAGGG	0.996
ATACCGCCTG	1.05
GAATCAAGTG	0.933
CTGGTAGCGC	1.04
CGAAATTCGG	1
TTCCATCAGC	0.979
ACTCAGACA	1.03
TTCTACTGGT	0.96
TGTCATTGCG	1.01

Sequence	switch fluorescence ratio
TAGTGTAAAG	0.982
GTGGTCGCGT	0.997
CGTAGGCTGT	0.956
AACGTGTCTA	1.01
GTAGTGAGGT	1.02
AGTTAACTCC	1.09
AAGGGAGCAT	3.47
CGCAACAGAG	1.2
CATCTTAGAA	0.977
TATTCCTTGA	1.01
CTTTGGCGGT	0.979
CATTCTGACT	1.01
GCCTATCCGA	1.17
ATTACCTCGG	1
AACTGTAATC	1.12
CAATGCCGGA	1.04
TAACTTCGGG	1.02
TCCGCACTCA	1.4
TGCACTCCGC	2.47
TTTTATTCG	1.05
ATCCGGAGGC	1.07
GCGGCCGGCG	1.11
AACGAGTTCA	0.997

Sequence	switch fluorescence ratio
GTTTACCCGG	0.942
CCGCGTGTCG	1.02
GCATATTGGT	0.977
ACTGGGCCGA	1.01
AGGAGGGCGG	0.999
TAGTCGGAAC	1.03
ATAAGAAAGT	0.98
CATTTTGGCG	0.984
TGTAGAGGAA	1
GCATTACGAT	2.22
CCTTTTGTAG	1.05
CCTAGTTCGC	1.08
GCAGCGGCTA	1.04
ACTGTATCCT	1.17
AGAATTTTGT	1.11
ACGATTTATA	1.02
CCATGGTATA	0.966
TTTGTTGCAT	0.959
TAGTGCACGT	1.01
